The text below walks through data of ChEMBL document CHEMBL4888484, “Replenishing the malaria drug discovery pipeline: Screening and hit evaluation of the MMV Hit Generation Library 1 (HGL1) against asexual blood stage Plasmodium falciparum ,using a nano luciferase reporter read-out” (2022).

Usually % Inhibition stands for the relative decrease from the control value, in per cent.

The whole screen tested about 150,000 compounds, of which about 540 (0.36%) showed an effect of 50% or more. The list shows a part of the results.

The subject of this experiment is Plasmodium falciparum. The experiment is described as follows: Primary screen in NF54 nanoGlo assay, in single point, at 2uM, 72h; a lower Z score goes with more inhibition. Type of experiment: functional, Erythrocyte. Particulars: timepoint 72 hour.
Regarding `O=C1N[C@@H](C2CCCCC2)C(=O)N[C@@H](Cc2ccccc2)C(=O)NCc2cn(nn2)CCOc2ccc(Cl)cc21`, the “% Inhibition” value is on record as -5% and the Z score is reported as 0.91.

With `COc1ccc(O)c(-c2ccnc3c(C(=O)Nc4ccccn4)cnn23)c1`, the “% Inhibition” value is given as 2% and the Z score was -0.21.

`O=S(=O)(NCc1ccsc1)c1cccnc1`: the “% Inhibition” value was -20% and the Z score was determined as 2.9.

In the case of `CCC(CC)C(=O)Nc1cc(OC)cc(OC)c1`, the “% Inhibition” value was -2% and the Z score amounted to 0.33.

As to `O=C(C1CCN(c2nc3cccnc3s2)CC1)N1CCC(N2CCCCC2)CC1`, the “% Inhibition” value is -19% and the Z score stood at 1.67.

For `COCCCOC1CN(C(=O)NC2CCCCC2)C1`, the “% Inhibition” value stood at 2% and the Z score is listed as -0.36.

On to `O=C(NCc1cccc(N2CCCC2)c1)c1cncnc1`, for which the “% Inhibition” value was 0% and the Z score is given as 0.06.

As for `O=C(CN(CC(=O)NC1CC1)C1CCCCC1)NC1CC1`, the “% Inhibition” value amounted to 14% and the Z score was -1.9.

For `CCn1ncc2c1CCCC2NC(C)C(=O)NC(C)c1ccccc1` (centres undefined), the “% Inhibition” value is -7% and the Z score is 0.66.

For `CCn1cc(CNc2nncn2-c2ccccc2)cn1`, the “% Inhibition” value is 4% and the Z score was -0.61.

Consider `COc1nsc(CNC(=O)Nc2ccn(C)n2)c1Br`, for which the “% Inhibition” value came out at 16% and the Z score is given as -1.9.

Take `O=C(C[C@H]1COCCN1C(=O)c1ccc(Cl)o1)c1ccco1`: the “% Inhibition” value was 5% and the Z score is -0.78.

On to `CC(=O)NCc1nnc(C(C)(C)C)s1`, for which the “% Inhibition” value is given as -8% and the Z score stood at 0.81.

As to `Cc1ccc2c(c1)C(=O)N(CCC(=O)NCC1CCCCCCC1)C2=O`, the “% Inhibition” value is -3% and the Z score is 0.34.

Turning to `Cc1ccc(Cc2nnn(CC(=O)NC(C)C)n2)cc1`, the “% Inhibition” value is listed as -10% and the Z score came out at 0.92.

Take `Clc1ccc(-c2csc3ncnc(N4CCc5ccccc54)c23)cc1`: the “% Inhibition” value was -5% and the Z score is listed as 0.45.

Turning to `O=C(O)c1cnn(C2CCN(c3ncncc3-c3ccccc3)CC2)c1`, the “% Inhibition” value is on record as -10% and the Z score is listed as 1.92.

With `Cn1nccc1C(=O)NC(C)(C)c1nc2c(c(C(N)=O)n1)OCCO2`, the “% Inhibition” value is -3% and the Z score was 0.36.

Turning to `CCCN1CCN(C(=O)c2nnn([C@H]3CCNC3)c2C)c2ccc(F)cc21`, the “% Inhibition” value is on record as -18% and the Z score is 2.37.

For `CCc1nc(-c2ccccc2)nc(N2CCN(C(=O)N(C)C)CC2)c1Cc1cccc(C)c1`, the “% Inhibition” value is -27% and the Z score stood at 2.41.

Take `O=C(N[C@H]1CCN(Cc2noc(-c3ccccc3)n2)C1)c1ccoc1`: the “% Inhibition” value came out at 0% and the Z score was found to be 0.03.

Turning to `CC(=O)N(Cc1ccco1)c1ccc(C)cc1`, the “% Inhibition” value is listed as -8% and the Z score came out at 0.87.

Regarding `Cc1ccc(CN2CCCN(c3ccc(NC(=O)c4cccs4)cc3)C2=O)cc1`, the “% Inhibition” value is reported as -2% and the Z score came out at 0.25.

With `CC(C)c1ccoc1C(=O)N1CCC[C@H](N2CCCC2)CC1`, the “% Inhibition” value came to 4% and the Z score is listed as -0.61.

For `Cc1ccccc1OCC(=O)NC[C@H](O)c1ccc(-c2cccs2)s1`, the “% Inhibition” value is on record as 4% and the Z score is on record as -0.56.

With `Cc1ccc(CNS(=O)(=O)c2cc3c(=O)n(C)nc(C)n3c2)o1`, the “% Inhibition” value was 2% and the Z score was -0.26.

Turning to `c1cnc2nc(CN3CCC[C@H](c4nnc[nH]4)C3)nn2c1`, the “% Inhibition” value is recorded as -5% and the Z score is 0.99.

In the case of `O=S(=O)(c1ccc(F)cc1F)N1CCC2(CC1)Nc1ccc(Cl)cc1-n1cccc12`, the “% Inhibition” value is recorded as -12% and the Z score is recorded as 1.6.

Take `Cc1ccc(-c2cc3c(=O)n(Cc4noc(CN5CCN(C(C)C)CC5)n4)ccn3n2)cc1`: the “% Inhibition” value is given as -4% and the Z score was determined as 0.55.

Consider `CCN(CC(C)(C)O)C(=O)C1CC(C)(O)C1` (centres undefined), for which the “% Inhibition” value is listed as -28% and the Z score stood at 3.32.

In the case of `Cn1ncc2c1CCCN(S(=O)(=O)CC13CCC(CC1)C3)C2`, the “% Inhibition” value is 0% and the Z score amounted to 0.01.

Take `C[C@H]1CN(C(=O)c2cc(O)nc3ccc(Br)cc23)CCN1`: the “% Inhibition” value is reported as -5% and the Z score came out at 0.54.

For `CCOc1ccc(N2CCC(C(=O)NCc3ccccc3)CC2)nn1`, the “% Inhibition” value was -13% and the Z score amounted to 1.63.

As to `CCCC1(C2CCN(C(=O)CC3=CCCCC3)CC2)NC(=O)N(CCC2CCCN2C)C1=O` (centres undefined), the “% Inhibition” value is 8% and the Z score is -1.17.

For the compound `Cc1csc(NC(=O)CC[C@@H](C)[C@H]2CC[C@H]3[C@@H]4[C@H](O)C[C@@H]5C[C@H](O)CC[C@]5(C)[C@H]4C[C@H](O)[C@]23C)n1`, the “% Inhibition” value is given as -4% and the Z score amounted to 0.45.

As for `Cc1ccc(C(=O)Nc2cccc(CCc3ccncc3)c2)cc1Cl`, the “% Inhibition” value is on record as -9% and the Z score came out at 1.15.

For the compound `CCn1c(CC2CCN(C(=O)c3n[nH]c4c3CCC4)CC2)nn(C)c1=O`, the “% Inhibition” value was -6% and the Z score was determined as 1.11.

On to `CN1C(=O)CCN(C(=O)c2ccccc2OC2CC2)c2ccccc21`, for which the “% Inhibition” value is 1% and the Z score is -0.15.

Regarding `Cc1ccc(CN2C(=O)C3CCCCC3C2=O)cc1S(=O)(=O)N1CCN(C2CCCCC2)CC1` (centres undefined), the “% Inhibition” value is recorded as -19% and the Z score worked out at 2.56.

With `CCN(C(=O)C1CCN(S(=O)(=O)c2ccc3c(c2)CCCN3C(=O)C2CCC2)CC1)c1ccccc1`, the “% Inhibition” value is recorded as -19% and the Z score turned out to be 3.66.

For the compound `C[C@H]1CN(C(=O)Nc2ccc3ccn(C)c(=O)c3c2)CCN1`, the “% Inhibition” value is reported as -11% and the Z score is recorded as 2.33.

In the case of `COc1cccc(NC(=O)Cn2c3ccccc3n3c(=O)cc(-c4cccc(OC)c4)nc23)c1`, the “% Inhibition” value is listed as -11% and the Z score was 1.2.
